Measured values: paper PMC4336329 (PLoS ONE, 2015)
Among all 310,000 compounds or so, about 14,000 (4.5%) showed an effect of 50% or more. The effect is printed as a negative number. This is one part of the list.

biological target: human ether-à-go-go-related gene (hERG) potassium channel (human, UniProt Q12809); assay: primary screen, population patch clamp on CHO cells stably expressing hERG
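Also: peak tail current of the secondary pulse compared with the same well before compound.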

Chain of human ether-à-go-go-related gene (hERG) potassium channel (Q12809 whole entry, looked up): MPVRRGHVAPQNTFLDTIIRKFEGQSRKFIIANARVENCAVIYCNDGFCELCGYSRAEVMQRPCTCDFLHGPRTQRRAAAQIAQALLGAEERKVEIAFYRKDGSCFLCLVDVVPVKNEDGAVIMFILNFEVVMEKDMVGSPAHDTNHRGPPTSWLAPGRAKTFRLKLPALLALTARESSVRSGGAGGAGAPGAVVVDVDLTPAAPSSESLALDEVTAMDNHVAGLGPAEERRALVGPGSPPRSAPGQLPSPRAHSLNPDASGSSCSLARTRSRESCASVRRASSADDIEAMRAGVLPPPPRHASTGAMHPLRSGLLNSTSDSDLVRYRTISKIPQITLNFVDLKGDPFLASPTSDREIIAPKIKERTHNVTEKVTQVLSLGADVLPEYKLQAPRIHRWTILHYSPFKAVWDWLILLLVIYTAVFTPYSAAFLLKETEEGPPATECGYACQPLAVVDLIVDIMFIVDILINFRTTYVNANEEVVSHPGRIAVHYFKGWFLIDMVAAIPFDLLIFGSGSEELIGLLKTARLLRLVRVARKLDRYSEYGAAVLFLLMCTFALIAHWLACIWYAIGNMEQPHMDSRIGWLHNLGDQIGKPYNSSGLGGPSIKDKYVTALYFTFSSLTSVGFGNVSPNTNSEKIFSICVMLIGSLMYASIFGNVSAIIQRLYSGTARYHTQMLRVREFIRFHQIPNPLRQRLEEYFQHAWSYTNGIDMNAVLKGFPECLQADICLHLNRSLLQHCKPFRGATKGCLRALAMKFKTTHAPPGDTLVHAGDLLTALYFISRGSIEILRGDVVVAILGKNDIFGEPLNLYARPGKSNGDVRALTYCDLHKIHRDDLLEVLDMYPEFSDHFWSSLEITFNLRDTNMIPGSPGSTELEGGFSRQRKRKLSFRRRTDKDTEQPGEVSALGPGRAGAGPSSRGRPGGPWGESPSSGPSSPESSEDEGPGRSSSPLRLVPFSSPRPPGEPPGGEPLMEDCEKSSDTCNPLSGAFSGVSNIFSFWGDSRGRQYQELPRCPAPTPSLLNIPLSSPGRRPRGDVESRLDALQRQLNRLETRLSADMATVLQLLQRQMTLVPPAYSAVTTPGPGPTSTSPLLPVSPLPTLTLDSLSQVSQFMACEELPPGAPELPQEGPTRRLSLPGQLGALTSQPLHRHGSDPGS

SMILES	hERG current change (%, negative = inhibition) at 10uM
Cc1ccc(NC(=O)CCCN2C(=S)NC(C)(C)CC2C)cc1 (centres unmarked)	15.1%
O=c1c(Cl)c(N2CCC3(CC2)OCCO3)cnn1C12CC3CC(CC(C3)C1)C2	10.9%
O=C(NC1CCCC1)C(c1cccnc1)N(C(=O)c1csnn1)c1ccccc1Cl (centres unmarked)	-10.8%
Nc1sccc1C(=O)c1ccccc1	4.8%
O=C(CCCCC(=O)Nc1ccccc1)Nc1ccccc1	22.9%
COc1ccc(-n2c(=O)c3c4c(sc3n3c(=S)[nH]nc23)COC(C(C)C)C4)cc1 (centres unmarked)	24.1%
CCn1c(COc2cccc(OC)c2)nnc1SCC(=O)N1CCOCC1	-15%
CCOC(=O)c1sc(NC(=O)/C=C/c2ccccc2)nc1C	12.8%
Cc1ccc(OCC(=O)N(C)CC(=O)Nc2ccc(F)cc2)c([N+](=O)[O-])n1	-24.2%
O=C1CC(c2ccccc2F)c2cc3c(cc2N1)CCC3 (centres unmarked)	5.73%
CCc1cccc(C)c1NS(=O)(=O)c1c(C)nc2sccn2c1=O	-12.4%
Cc1ccc(-c2ccc(=O)n(CC(=O)N3CCC4(CC3)OCCO4)n2)cc1	5.07%
CCN1CCN(C(=O)c2ccccc2Nc2ccc(SC(F)F)cc2)CC1.Cl	-45.8%
Cc1cc(SCC(=O)Nc2ccccc2)n2ncc(-c3ccccc3)c2n1	14.4%
CC(O)[C@H](NC(=O)C1CCN(C(=O)[C@H](Cc2ccccc2)NC(=O)OC(C)(C)C)CC1)C(=O)O (some centres unmarked)	20.6%
O=C1CN(C(=O)COc2cccc(F)c2)c2ccccc2N1	-16.9%
COc1cccc(NC(=O)C2C(c3ccccc3)C2(Cl)Cl)c1 (centres unmarked)	10.7%
CC(=O)N=c1c(C#N)cc2c(=O)n3ccccc3nc2n1CCCOC(C)C	-13.6%
CCc1ccccc1NC(=O)CSC1=C(C#N)C(c2ccc3c(c2)OCO3)C2=C(CCCC2=O)N1 (centres unmarked)	4.01%
COc1cccc(NC(=S)N(CCCN2CCCC2)Cc2ccco2)c1	-46.3%
CCC(C(=O)Nc1ccccc1C(=O)N1CCCC1)N1C(=O)c2ccccc2C1=O (centres unmarked)	-5.08%
Cl.OCCNc1nc(Nc2cccc(O)c2)nc2ccccc12	-23.8%

SMILES	hERG current change (%, negative = inhibition) at 10uM
CCC/C(=N\NC(=O)C1CCCC1)c1ccccc1	6.6%
Cc1ccc(NC(=O)C2CCCN(S(=O)(=O)c3ccc4[nH]c(=O)ccc4c3)C2)c(C)c1 (centres unmarked)	3.65%
Cc1nn(-c2ccccc2)c2c1C(O)CC(C)(C)C2 (centres unmarked)	17.8%
Cc1cccc(NC(=O)CCC(=O)N2CCOCC2)n1	5.77%
COc1ccc(-n2nnnc2SCC(=O)NCCc2ccccc2)cc1OC	4.01%
Cl.O=C1[C@H]2CCCC[C@H]2C(=O)N1CCCCN1CCN(c2nsc3ccccc23)CC1	-74.3%
CC(C)NC(=O)c1noc2cc([N+](=O)[O-])ccc12	-4.48%
O=C(CSc1nnc(-c2ccco2)n1Cc1ccco1)Nc1ccccc1	-70.7%
O=C(N/N=C/c1ccc([N+](=O)[O-])cc1)c1cccs1	10.2%
CC(C)CC(=O)Nc1c2c(nn1-c1ccc([N+](=O)[O-])cc1)CS(=O)(=O)C2	-32.5%
O=C(COc1coc(CN2CCN(c3ccccc3F)CC2)cc1=O)NC1CCCCC1	-21.6%
CCOc1ccc(/C=C(/NC(=O)c2ccccc2)C(=O)NCCC(=O)O)cc1	24%
CC1CCCC2(C1)NC(=S)c1c(sc3c1CCCC3)N2 (centres unmarked)	18.8%
COC(=O)c1c(C)[nH]c(O)c1C=Nc1ccc(C(C)C)cc1	-3.59%
O=C(Cn1nc(Cc2cccnc2)c2ccccc2c1=O)N1CCN(C(=O)c2ccco2)CC1	-8.05%
COC(C(=O)Nc1ccc(C(C)=O)cc1)c1ccccc1 (centres unmarked)	12.3%
Cc1cccc(N2C(=O)CC(N3CCN(Cc4ccc(Cl)cc4)CC3)C2=O)c1 (centres unmarked)	-32.3%
Nc1nonc1C(=O)NCCNc1ncccc1[N+](=O)[O-]	-4.45%
O=C(Cc1cccs1)N/N=C/C=C/c1ccccc1	13.1%
Cc1c(C)c2ccc(OCC(=O)Nc3cccnc3)cc2oc1=O	5.04%
COC(=O)c1c(-c2ccc(C)cc2)csc1NC(=O)C1CC=CCC1C(=O)O (centres unmarked)	-0.165%
Cn1c(=O)n(Cc2ccccc2F)c(=O)c2c1nc1n2CCCN1CCc1ccccc1	16.6%
